Data published in PubChem BioAssay AID1030 (National Center for Advancing Translational Sciences (NCATS), 2008).
Among all 220,000 compounds or so, about 16,000 (7.3%) were called active. The shares of active, inactive and inconclusive entries below differ from those in the screen. Calls come from the whole dose curve; as a rule, active = well fitted inhibition curve with a large enough effect (not every such curve was filed as active); inconclusive = small, poorly fitted or top-dose-only effect, or another doubt; inactive = no such curve, though single readings can be large or run the other way. Potencies of inconclusive entries are left out as doubtful fits.

Target: Aldehyde dehydrogenase 1A1 (Homo sapiens) (UniProt P00352)
Test: qHTS Assay for Inhibitors of Aldehyde Dehydrogenase 1 (ALDH1A1)
Conditions: Purified ALDH1A1, NADH fluorescence, propionaldehyde substrate; series mostly up to 75.3 µM
Potency is the fitted concentration of half-maximal effect; tags give direction and shape of the fitted curve.

Chain of UniProt P00352 (P00352 whole entry, looked up): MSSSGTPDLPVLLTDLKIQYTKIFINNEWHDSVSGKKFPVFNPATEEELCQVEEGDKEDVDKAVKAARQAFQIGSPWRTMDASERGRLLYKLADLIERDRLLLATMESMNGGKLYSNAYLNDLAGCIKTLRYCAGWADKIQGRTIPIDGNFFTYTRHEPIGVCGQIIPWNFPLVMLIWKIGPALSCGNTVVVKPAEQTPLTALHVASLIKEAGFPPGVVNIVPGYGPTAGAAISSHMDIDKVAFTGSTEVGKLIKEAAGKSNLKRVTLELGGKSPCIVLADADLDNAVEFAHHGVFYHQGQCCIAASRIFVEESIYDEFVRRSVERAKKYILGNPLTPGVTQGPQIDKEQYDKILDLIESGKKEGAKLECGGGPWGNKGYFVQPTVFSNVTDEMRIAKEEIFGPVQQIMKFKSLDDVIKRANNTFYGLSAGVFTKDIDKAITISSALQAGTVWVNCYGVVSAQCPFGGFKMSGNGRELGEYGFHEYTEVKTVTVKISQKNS

| SMILES | Potency |
| --- | --- |
| Cn1c(=O)n(C)c2cc(C(=O)c3ccccc3)ccc21 | active: 7.94 µM |
| c1ccc(N/N=C(\Cc2ncc[nH]2)c2ccccc2)cc1 | active: 7.08 µM |
| O=C1CC(N2CCOCC2)C(=O)N1c1ccccc1Cl (stereo unspecified) | inconclusive [inhibitor, single point] |
| O=c1/c(=C/c2ccco2)sc2n1CN(c1cccc(Br)c1)CN=2 | inconclusive [inhibitor, single point] |
| O=C(CCSc1ccccc1)N1CCN(C(=O)c2ccco2)CC1 | active: 22.4 µM |
| COc1cc2c(cc1OC)C(C)N(C(=O)c1cc3c(s1)-c1c(C)cccc1OC3)CC2 (stereo unspecified) | inconclusive [inhibitor, partial curve] |
| O=C(CN1CCN(S(=O)(=O)c2cc(Cl)ccc2Cl)CC1)Nc1ccc2c(c1)OCCO2 | active: 8.91 µM |
| CCN1CCN(CCCN(Cc2ccco2)C(=S)Nc2ccccc2Cl)CC1 | inactive |
| COc1cc(/C=N\NC(=O)c2c(C)nc3cc(C)ccn23)ccc1O | inconclusive [inhibitor, single point] |
| CC1CCCC(NC(=O)Cc2ccc(Br)cc2)C1C (stereo unspecified) | inactive |
| c1ccc2c(-c3nc4ncccc4o3)cccc2c1 | inconclusive [inhibitor, partial curve] |
| O=C(CSc1nnc(CNc2ccc(F)cc2)o1)OC1CCCCC1 | inconclusive [inhibitor, single point] |
| Cc1cccc(C)c1NC(=O)C(=O)NCCOc1ccc(Cl)cc1 | inactive |
| O=S(=O)(Nc1nc2ccccc2nc1-[n+]1cccc(N=C([O-])c2ccc(Cl)cc2)c1)c1ccccc1 | inconclusive [inhibitor, partial curve] |
| CCOc1ccc(-c2cc(C(=O)NN)[nH]n2)cc1 | inconclusive [inhibitor, partial curve, poor fit] |
| CC(=O)Nc1ccc(NC(=O)c2ccc(COc3ccc4c(C)cc(=O)oc4c3)cc2)cc1 | inconclusive [inhibitor, partial curve] |
| Cc1ccc(NC(=S)NCC(C)CSc2ccc(Cl)cc2)cc1 (stereo unspecified) | inconclusive [inhibitor, partial curve] |
| Cc1cccc(NC(=O)Cn2c(=O)n(CCc3c[nH]c4ccccc34)c(=O)c3cccnc32)c1 | inconclusive [inhibitor, single point] |
| COC(=O)C1=C(CSc2nc3c(cc2C#N)CN(C)CC3)OC(N)=C(C#N)C1c1ccccc1F (stereo unspecified) | inconclusive [inhibitor, partial curve] |
| N#Cc1ccc(COc2ccc(CCO)cc2-n2nc3ccccc3n2)cc1 | inconclusive [inhibitor, single point] |
| NC(=O)Cc1ccc2sc(-c3ccccc3)nc2c1 | inactive |
| Brc1ccccc1-c1nnc(COc2ncnc3c2cnn3-c2ccccc2)o1 | inconclusive [inhibitor, partial curve] |
| CCOc1ccc(-n2c(O)c(/C=N/Nc3nc(C)cc(C)n3)c3ccccc3c2=O)cc1 | active: 5.01 µM |

| SMILES | Potency |
| --- | --- |
| Cc1ccc(C2C(C#N)=C(N)SC(N)=C2C#N)o1 | inconclusive [inhibitor, full curve] |
| Cc1ccc(C2CC(c3cccs3)=NN2C(=O)c2ccc(Br)o2)cc1 (stereo unspecified) | inconclusive [inhibitor, partial curve] |
| CN(C)S(=O)(=O)c1cccc(NC(=O)c2cnccn2)c1 | inactive |
| Cc1sc2ncn(-n3c(C)ccc3C)c(=O)c2c1C | inactive |
| Cc1cc(=O)[nH]c(N/N=C/c2ccc(C)o2)n1 | inconclusive [inhibitor, single point] |
| O=C(c1cccs1)N(Cc1ccco1)Cc1cc2ccccc2[nH]c1=O | inconclusive [inhibitor, single point] |
| CC(C)(C)NC(=O)CN(Cc1ccc2c(c1)OCO2)C(=O)CNC(=O)c1cccs1 | inactive |
| Cc1ccc(NC(=O)C(Nc2cccc(C)c2)c2ccccc2)cc1 (stereo unspecified) | active: 28.2 µM |
| CC1(C)CC(=O)C(C=NCCN2CCN(C(=O)C34CC5CC(CC(C5)C3)C4)CC2)=C(O)C1 | active: 7.94 µM |
| Cc1cc(NC(=O)Cn2nnc(-c3ccccc3N)n2)no1 | inactive |
| CCOc1ccc2c(c1)nc(SCC(=O)c1ccc(Br)s1)n2C | active: 17.8 µM |
| C[C@@H](C(=O)Nc1ccc2ccccc2c1)[C@@H]1C[C@@]1(C)[C@@H](NS(=O)(=O)c1ccc(-c2ccccc2)cc1)c1ccccc1 | inactive |
| Cc1cc(N2CCC(N(C)C3CCCC3)CC2)nc2cc(O)ccc12 | inconclusive [inhibitor, partial curve] |
| CC1=CC(C)(C)NC(=S)N1c1ccc2ccccc2c1 | inactive |
| O=S(=O)(c1cccc(-c2csc(-c3ccccc3)n2)c1)N1CCOCC1 | inconclusive [inhibitor, single point] |
| CCOc1ccc2ccccc2c1C(=O)N1CCOCC1 | inconclusive [inhibitor, single point] |
| CC(C)(C)n1nc2c(c1NC(=O)Cc1ccccc1)CS(=O)(=O)C2 | inactive |
| COc1ccc(OC)c(CCNC(=O)CS(=O)(=O)Cc2nc(-c3ccccc3C)oc2C)c1 | inconclusive [inhibitor, single point] |
| CN1CCN(Cc2cc(COCc3ccccc3)c3cccnc3c2O)CC1 | inconclusive [inhibitor, single point] |
| CCOC(=O)c1[nH]c2ccc(OC)cc2c1NC(=O)N1CCOCC1 | inconclusive [inhibitor, single point] |
| CC1(C)Cc2nc3sc4c(N5CCCC5)nnnc4c3cc2CO1 | inconclusive [inhibitor, partial curve] |
| O=C(O/N=C1\CCCCC1c1ccc([N+](=O)[O-])cc1[N+](=O)[O-])c1c(F)cccc1F (stereo unspecified) | active: 17.8 µM |
| CC(C)C[C@@H](CC(=O)N[C@@H](CCC(=O)O)CC(=O)O)NC(=O)[C@@H]1CNCC[C@H]1NC(=O)C[C@@H](NC(=O)C[C@H](CO)NC(=O)[C@@H]1CCCC[C@H]1N)C(C)C | inactive |
